Experimental data taken from PMC6057269.
No constants are given. Whether binding was seen depends on the method and setting. Some binding calls cover weakened binding; strength is not graded here. Tags and fused reporters may be left off the sequences shown.

Chains of the proteins cited; added tags and fusions are not shown. Lines headed by an entry give the natural chain unless they say otherwise; changes in a name come on top. A line that says so, or that is headed by a name, gives the form on record, which may keep a tag or linker. Residues count along the entry.
mitochondrially targeted GFP-ITSN1 SH3d, wild type (Q15811, residues 1076-1138): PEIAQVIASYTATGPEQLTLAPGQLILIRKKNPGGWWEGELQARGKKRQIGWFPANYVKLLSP
mitochondrially targeted GFP-ITSN1 SH3d R1119E (Q15811, form named): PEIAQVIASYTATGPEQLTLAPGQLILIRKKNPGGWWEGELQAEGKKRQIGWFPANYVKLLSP

Key:
[1] = biological target: mitochondrially targeted GFP-ITSN1 SH3d R1119E (human) (UniProt Q15811); test: recruitment to mitochondria by a mistargeted bait (microscopy); ITSN1 SH3d mistargeted to mitochondria by the TOM20 transmembrane domain in HeLa cells; FCHSD2-FusionRed co-transfected or endogenous FCHSD2 stained; confocal imaging
[2] = biological target: mitochondrially targeted GFP-ITSN1 SH3d, wild type (human) (UniProt Q15811); test: as above

Binder | binding [1] | binding [2]
FCHSD2-FusionRed (protein, UniProt O94868-1 1-740) MQPPPRKVKVTQELKNIQVEQMTKLQAKHQAECDLLEDMRTFSQKKAAIEREYAQGMQKLASQYLKRDWPGVKADDRNDYRSMYPVWKSFLEGTMQVAQSRMNICENYKNFISEPARTVRSLKEQQLKRCVDQLTKIQTELQETVKDLAKGKKKYFETEQMAHAVREKADIEAKSKLSLFQSRISLQKASVKLKARRSECNSKATHARNDYLLTLAAANAHQDRYYQTDLVNIMKALDGNVYDHLKDYLIAFSRTELETCQAVQNTFQFLLENSSKVVRDYNLQLFLQENAVFHKPQPFQFQPCDSDTSRQLESETGTTEEHSLNKEARKWATRVAREHKNIVHQQRVLNDLECHGAAVSEQSRAELEQKIDEARENIRKAEIIKLKAEARLDLLKQIGVSVDTWLKSAMNQVMEELENERWARPPAVTSNGTLHSLNADTEREEGEEFEDNMDVFDDSSSSPSGTLRNYPLTCKVVYSYKASQPDELTIEEHEVLEVIEDGDMEDWVKARNKVGQVGYVPEKYLQFPTSNSLLSMLQSLAALDSRSHTSSNSTEAELVSGSLNGDASVCFVKALYDYEGQTDDELSFPEGAIIRILNKENQDDDGFWEGEFNGRIGVFPSVLVEELSASENGDTPWMREIQISPSPKPHASLPPLPLYDQPPSSPYPSPDKRSSLYFPRSPSANEKSLHAESPGFSQASRHTPETSYGKLRPVRAAPPPPTQNHRRPAEKIEDVEITLV | no binding | binds
FCHSD2 (endogenous, HeLa) (protein, UniProt O94868 1-740) MQPPPRKVKVTQELKNIQVEQMTKLQAKHQAECDLLEDMRTFSQKKAAIEREYAQGMQKLASQYLKRDWPGVKADDRNDYRSMYPVWKSFLEGTMQVAQSRMNICENYKNFISEPARTVRSLKEQQLKRCVDQLTKIQTELQETVKDLAKGKKKYFETEQMAHAVREKADIEAKSKLSLFQSRISLQKASVKLKARRSECNSKATHARNDYLLTLAAANAHQDRYYQTDLVNIMKALDGNVYDHLKDYLIAFSRTELETCQAVQNTFQFLLENSSKVVRDYNLQLFLQENAVFHKPQPFQFQPCDSDTSRQLESETGTTEEHSLNKEARKWATRVAREHKNIVHQQRVLNDLECHGAAVSEQSRAELEQKIDEARENIRKAEIIKLKAEARLDLLKQIGVSVDTWLKSAMNQVMEELENERWARPPAVTSNGTLHSLNADTEREEGEEFEDNMDVFDDSSSSPSGTLRNYPLTCKVVYSYKASQPDELTIEEHEVLEVIEDGDMEDWVKARNKVGQVGYVPEKYLQFPTSNSLLSMLQSLAALDSRSHTSSNSTEAELVSGSLNGDASVCFVKALYDYEGQTDDELSFPEGAIIRILNKENQDDDGFWEGEFNGRIGVFPSVLVEELSASENGDTPWMREIQISPSPKPHASLPPLPLYDQPPSSPYPSPDKRSSLYFPRSPSANEKSLHAESPGFSQASRHTPETSYGKLRPVRAAPPPPTQNHRRPAEKIEDVEITLV | no binding | binds
